Source: paper PMC8761492 (Life Science Alliance, 2022)
Starred links: 1 amine or outer side, 2 acyl side, 3 side chain; linkers in the order of their positions; H or OH if unused. Positions of bridges follow the written chain, without caps; N, C: chain ends. Non-standard residues stand in square brackets, D forms with d. Residues, ends and D or L forms follow the SMILES beside them. *: point of attachment. X1 = CC[C@H](C)[C@@H](N[*:1])[C@@H](O)CC(=O)O[C@H](C(=O)[C@H](C)C(=O)[*:2])C(C)C; NMeY = CN[C@@H](Cc1ccc(O)cc1)C(=O)O; dNMeL = CN[C@H](CC(C)C)C(=O)O; Pyruvoyl = CC(=O)C(=O)*

Experiment: Tissue distribution of total radioactivity after single IV bolus of [14C]plitidepsin
Assay type: in vivo, Sprague–Dawley rats
Conditions: rat, 0.2 mg/kg i.v. bolus
Description: An in vivo distribution study was carried out in rats. PM140064 (14C1-Plitidepsin) was supplied by PharmaMar at a radiochemical purity of 95% or greater, with no single impurity 3% or greater. The study was conducted at Aptuit Srl ([54]).
24 male and 24 female Sprague–Dawley rats each received a single IV bolus administration of [14C] Plitidepsin at a target dose of 0.2 mg/kg. After administration, three animals per time-point (0.25, 1, 2, 4, 8, 24, 48, and 72 h post-dose) were exsanguinated from the abdominal aorta and blood retained. Actual times of bleeding were recorded. In addition to blood, the following tissues were collected: brain, eyeballs, heart, liver, lung, skeletal muscle (quadriceps), fat, kidneys, stomach, skin, small intestine, spleen, thyroid, lymph nodes, and testes or ovaries. At the end of the collection period animals were euthanized by CO2 asphyxiation and the carcasses were discarded. Additional animals were bled to obtain control blood/plasma and tissues.

## CC[C@H](C)[C@H]1NC(=O)[C@@H](NC(=O)[C@@H](CC(C)C)N(C)C(=O)[C@@H]2CCCN2C(=O)C(C)=O)[C@@H](C)OC(=O)[C@H](Cc2ccc(OC)cc2)N(C)C(=O)[C@@H]2CCCN2C(=O)[C@H](CC(C)C)NC(=O)[C@@H](C)C(=O)[C@H](C(C)C)OC(=O)C[C@@H]1O [Plitidepsin] (Pyruvoyl-P[dNMeL]T[X1]LP[NMeY](Me); ester 3-C)
  lung-to-plasma area under the curve ratio (LPR): ~543 fold
